Whole data set: some 33,000 sequences, median “E-score (-0.5 to 0.5)” near -0.013, cut for the highest 2% near 0.3. The list shows a part of the results.
target: T1, Msn1 (UniProt P22148); experiment: PBM E-score (8-mer binding enrichment) (E-score (-0.5 to 0.5)); higher = stronger / more preferred TF binding; most listed sequences are background and not binding sites; settings: protein concentration: 200 nM; construct: GST-full length
T1 sequence: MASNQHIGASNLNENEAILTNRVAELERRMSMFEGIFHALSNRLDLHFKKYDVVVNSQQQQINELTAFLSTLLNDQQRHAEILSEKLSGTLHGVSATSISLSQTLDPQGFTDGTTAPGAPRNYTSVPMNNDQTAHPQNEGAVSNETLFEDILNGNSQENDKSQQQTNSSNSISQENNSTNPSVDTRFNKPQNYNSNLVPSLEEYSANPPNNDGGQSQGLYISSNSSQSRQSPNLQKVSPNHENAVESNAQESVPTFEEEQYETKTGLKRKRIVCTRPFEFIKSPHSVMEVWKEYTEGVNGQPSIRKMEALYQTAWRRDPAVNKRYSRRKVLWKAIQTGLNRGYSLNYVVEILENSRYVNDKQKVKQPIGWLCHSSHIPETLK
In short: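 PURExpress in vitro transcription/translation supplied GST-tagged yeast transcription factors, either full-length or DNA-binding domain. Applied at about 100-200 nM to universal all-10-mer Agilent arrays double-stranded by primer extension, the bound protein was detected with fluorescent anti-GST. E-scores, modified Wilcoxon-Mann-Whitney statistics, were given by the Universal PBM Analysis Suite to ungapped eight-base words pooled with their reverse complements after masliner normalisation.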

| Sequence | PBM E-score |
| --- | --- |
| CTGAAGTA | -0.0804 |
| ACAACGTG | 0.12 |
| CAGCTAAG | -0.15 |
| CGGCAACG | -0.148 |
| GGCTAGAC | -0.206 |
| CTGCTTAA | -0.0855 |
| CTGCCCAG | -0.31 |
| CCAGTTAG | -0.0534 |
| CCACCGCC | -0.159 |
| ATTTGGCA | 0.0086 |
| GAGACTCA | 0.0191 |
| CCATTGCA | 0.0313 |
| CAATTGAC | 0.0683 |
| CTCGAACA | -0.0343 |
| ACCGACCG | 0.0479 |
| AGTTCTAC | -0.0788 |
| CCGTAGCC | -0.233 |
| ACTTACTG | -0.113 |
| ACTCATGG | -0.103 |
| ATTTCTTC | 0.146 |
| AGGGGCTG | -0.094 |
| GCCTGTTA | -0.0683 |
| GGCAACCA | -0.198 |
| AGATGAAG | -0.119 |
| AACTTGAC | -0.0194 |

| Sequence | PBM E-score |
| --- | --- |
| CTACGGAA | 0.0358 |
| CCCTGCAC | -0.162 |
| GCATTAGA | -0.0163 |
| GCGCCGAC | 0.0435 |
| AGTGGAGC | -0.27 |
| ATAAATCA | 0.108 |
| CGGAGCTA | -0.0648 |
| AGGTGGCA | -0.157 |
| CCGGTGAA | 0.0572 |
| TATGCCAA | -0.031 |
| AAGGTCGT | -0.0332 |
| AGGGAGTC | -0.242 |
| AAAGCCTC | -0.0738 |
| GATACCGA | -0.016 |
| GAGAGTAC | 0.0327 |
| GGATACCA | -0.0112 |
| TCCCATAA | 0.113 |
| AACACAGT | 0.27 |
| CAGTAACG | -0.0501 |
| TACCTCGA | 0.106 |
| ACAGTGGC | -0.0849 |
| GGGCTGGA | -0.171 |
| CGTTCAAG | 0.0794 |
| GCAGAGGA | 0.0414 |
| AAGAGATC | -0.0725 |

| Sequence | PBM E-score |
| --- | --- |
| CATCTACG | 0.0396 |
| AAACTCGC | -0.0392 |
| AGCCCCAC | -0.234 |
| ATTTACCA | 0.14 |
| ACAGTTGC | 0.116 |
| CCGCTTCC | -0.183 |
| CCACTTAA | -0.0577 |
| AGGTGCTC | -0.306 |
| GTTGAGCA | -0.117 |
| GAAAGGAC | 0.265 |
| GACAGCTC | -0.202 |
| GATTGTGA | 0.0853 |
| TACTCTCA | -0.0218 |
| CGAAGCGC | 0.0371 |
| CGCCGGTC | -0.0266 |
| CCGAGCCC | -0.12 |
| ATAGTTAA | -0.0439 |
| AGTTTGCC | 0.0205 |
| AAAATTGA | 0.0956 |
| TGGTCTAA | -0.0904 |
| CTACTGTA | 0.0337 |
| CCCTACCA | -0.0743 |
| GACAGGCC | 0.146 |
| CGAAAGGC | -0.0418 |
| GCGGCAGA | -0.169 |

| Sequence | PBM E-score |
| --- | --- |
| AGAGGACA | 0.353 |
| ATCTAACC | 0.0546 |
| CGAAGGCG | -0.0827 |
| GTGTCATA | 0.292 |
| AACCGCAT | 0.0216 |
| ATCGCGAC | 0.0953 |
| AGTTCGCA | 0.106 |
| CCCAACGG | -0.0718 |
| AAGCCACC | -0.194 |
| CCTGAGAG | -0.169 |
| ACCCGTTC | -0.108 |
| CGTTTAAC | 0.0247 |
| ACTAAACT | 0.105 |
| AATTGGCT | 0.128 |
| ATGACAAA | 0.433 |
| CGAGCTAG | -0.0663 |
| GTCTCCGA | 0.0887 |
| ACTGGCCA | -0.0813 |
| AAATTAAA | 0.355 |
| ACGAAACA | 0.135 |
| AATCTGCC | 0.0156 |
| GTCTGCCA | -0.0498 |
| GTACCCTA | -0.0375 |
| AACGTCTT | 0.116 |
| GCATCAGA | 0.00462 |

| Sequence | PBM E-score |
| --- | --- |
| TATAAACA | 0.123 |
| CGCTGACG | -0.24 |
| TATGTGCA | -0.0908 |
| CAGTTTGA | 0.107 |
| GCCGCTCC | -0.263 |
| ACACCTGT | 0.105 |
| CGCTGCAA | -0.114 |
| AAGGCGCT | -0.124 |
| CCCCGGAG | -0.133 |
| GTCACAAA | 0.278 |
| AATTCTCT | -0.229 |
| CACTGACG | -0.0351 |
| GATAATTA | 0.179 |
| CGCTCAAA | 0.0393 |
| CCGTTCTC | -0.0918 |
| AACTGCTG | -0.272 |
| AGAGGGTA | -0.167 |
| AAATAGGA | 0.253 |
| CGCAGCCG | -0.203 |
| ATCCAATA | 0.0305 |
| AGCTACCG | -0.212 |
| AGTGTACG | 0.0603 |
| TAAGCGGA | -0.0513 |
| CGTTAGCC | -0.0321 |
| ACGCCACT | -0.167 |

| Sequence | PBM E-score |
| --- | --- |
| CAGAACTA | -0.00437 |
| CCCAACCC | -0.072 |
| ACTGGAGC | -0.292 |
| CGTCGTAC | 0.0913 |
| GGCACGAA | 0.0773 |
| CAGATCTG | -0.187 |
| AATTAAGT | 0.168 |
| AATTCAGA | 0.264 |
| CGACAAAC | 0.36 |
| CACGGGGG | -0.0556 |
| TGACCTCA | -0.018 |
| CAATGCTG | -0.142 |
| GGAGTACA | 0.0562 |
| CTTGGCAA | -0.0415 |
| CAAAAGCG | 0.146 |
| GGAATTCA | 0.0953 |
| ACAAAACT | 0.291 |
| AATCTAGG | 0.0743 |
| AGCGTGTA | -0.0217 |
| ACAGTGTG | -0.0998 |
| GAATAGAC | 0.103 |
| GTTGATCA | 0.0145 |
| CCAAAAGG | -0.112 |
| CCTCAATC | 0.053 |
| ACATAATA | 0.259 |

| Sequence | PBM E-score |
| --- | --- |
| GTGGGTGA | 0.00965 |
| ACTGATGA | 0.095 |
| GAAACCGA | -0.0428 |
| CATCGGAG | -0.0859 |
| CTGATCAA | -0.151 |
| CTGCAAGC | -0.17 |
| CCAGCAGA | 0.0113 |
| ACATCGGC | 0.156 |
| GCATTCAC | -0.0831 |
| ACAATAGT | 0.204 |
| AAGAATAA | 0.0437 |
| GCAAAGAC | 0.0622 |
| AACAGACG | 0.0017 |
| AAACTTCG | -0.175 |
| CCAGACGA | 0.0196 |
| ATCTGGCA | -0.0334 |
| ACGGCAAG | -0.0961 |
| ACTTGGAA | -0.0213 |
| AATGCCAC | -0.21 |
| AAGGAGCT | -0.203 |
| CTACATGC | 0.0071 |
| GTCGTATA | 0.0804 |

Source: the supplement of paper PMC3334620
